Measurements as given in PubChem BioAssay AID463173 (ICCB-Longwood Screening Facility, Harvard Medical School, 2010).
Out of some 52,000 compounds screened, about 1,700 (3.3%) were called active. Cut-off read from the data, not from the text of the source: active = survival mostly below about 52% (no sharp cut-off); inactive = mostly above about 56%. The list shows a part of the results.

What follows are compounds tested on Wild type (assay: growth inhibition of S. aureus wild type versus tarO mutant, primary screen, teichoic acid synthesis inhibitors, RN4220, OD600 (AID 463173)). Details: S. aureus RN4220 wild type/DeltatarO growth, OD600, 18 h, stronger effect = lower value, screened at 18.75 µg/mL (by protocol).
In the case of `O=C(Nc1ccc(F)c(Cl)c1)c1cc(S(=O)(=O)N2CCCc3ccccc32)ccc1F`, the survival is reported as inactive: 120%. `COc1ccc(S(=O)(=O)N(CC(=O)NCc2ccc(C)cc2)c2ccc(Cl)cc2)cc1` was tested, and the survival was inactive: 128%. With `Cc1ccc(NC(=O)C(=O)NCC(c2cccnc2)N2CCc3ccccc32)cc1Cl` (configuration not stated) the survival was inactive: 96%. `CCOc1ccc(C(=O)N2CCCCC2CCN2CCOCC2)cc1` (configuration not stated) was tested, and the survival was inactive: 88%. `COc1ccc(NC(=O)c2sc3nc(C)c(C(=O)Nc4ccc(Cl)cc4)c(-c4ccc(Br)cc4)c3c2N)cc1` was tested, and the survival was inactive: 75%. With `CCOc1ccccc1NC(=O)NCCn1c(=O)oc2ccc(C)cc21` the survival was inactive: 79%. `COc1ccc(-c2nc(-c3ccccc3)c(-c3ccc(O)cc3)[nH]2)cc1` was tested, and the survival was active: 3%. For `COc1ccccc1CNS(=O)(=O)c1cc2c3c(c1)CCN3C(=O)CC2`, the survival was inactive: 73%. `COC(=O)c1ccccc1NC(=O)Cn1nnc2sc(-c3ccccc3)cc2c1=O` was tested, and the survival was inactive: 85%. `CCc1ccc(-c2nn(CC(=O)NC3CCCC3)c3c2cnc2ccc(F)cc23)cc1` was tested, and the survival was inactive: 79%. In the case of `COc1ccccc1C(=O)NCCn1cc(SCc2ccccc2Cl)c2ccccc21`, the survival is reported as inactive: 28%. With `COc1ccccc1C(=O)Nc1nc(-c2ccccc2)ns1` the survival was inactive: 57%. For `CC1=CC(C)(C)Nc2ccc(OC(=O)c3ccco3)cc21`, the survival was inactive: 125%. With `C=Cn1cc[n+](CC(=O)c2ccc(C)cc2)c1` the survival was inactive: 95%. With `COc1ccc(Cn2c(C(=O)O)c(CNC3CCCCCC3)c3ccc(OC)cc32)cc1` the survival was inactive: 120%. In the case of `O=C(/C=C/c1ccc(F)cc1)Nc1nc2n(n1)C(c1ccc(Cl)cc1)C=C(c1ccccc1)N2` (configuration not stated), the survival is reported as inactive: 43%. For `Nc1ncnc2sc3c(c12)CCCC3`, the survival was inactive: 109%. `COc1ccc(OC)c(CNC(=O)CCn2c(=O)c3cccn3c3ccc(F)cc32)c1` was tested, and the survival was inactive: 81%. For `Cc1cc(C)c2[nH]c(=O)c(CN(Cc3ccco3)C(=S)NCCCN3CCOCC3)cc2c1`, the survival was inactive: 98%. `Cc1ccc2sc(N3CCN(C(=O)CCS(=O)(=O)c4ccc(F)cc4)CC3)nc2c1C` was tested, and the survival was inactive: 82%. In the case of `COc1ccc(-n2ncc3c(NCCC4=CCCCC4)ncnc32)cc1`, the survival is reported as inactive: 83%. In the case of `Cc1noc(/C=C/c2ccco2)c1S(=O)(=O)N1CCC(C(=O)Nc2ccc(F)c(Cl)c2)CC1`, the survival is reported as inactive: 120%. With `CCC1=Nc2cc(C(=O)NC3CCCC3)ccc2Sc2ccc(Br)cc21` the survival was inactive: 69%. `Cc1ccccc1-c1nc(CS(=O)(=O)CC(=O)NCc2cccc(Cl)c2)c(C)o1` was tested, and the survival was inactive: 117%. For `O=C1c2ccccc2-c2nc3ccccc3c(=O)n21`, the survival was inactive: 108%. With `Cc1ccc(S(=O)(=O)N2CCCC(NC(=O)N3CCN(c4ccccc4)CC3)C2)cc1` (configuration not stated) the survival was inactive: 115%. For `C=Cc1ccc(CN2C(=O)N(c3cccc(Cl)c3)S(=O)(=O)c3ccccc32)cc1`, the survival was inactive: 57%. `Cc1ccc2c(=O)c(C(=O)c3cccc(Cl)c3)cn(CC(=O)NCc3ccc(F)cc3)c2n1` was tested, and the survival was inactive: 79%. With `COc1ccc(C(=O)n2nc(-c3ccco3)nc2NCc2cccs2)cc1` the survival was inactive: 93%. With `COc1cccc(CN2CCc3nc(SCC(=O)Nc4ccccc4)[nH]c(=O)c3C2)c1` the survival was inactive: 83%. In the case of `COc1ccc(C)cc1Nc1c2c(nc3nc(-c4cccs4)nn13)CCCC2`, the survival is reported as inactive: 63%. `Cc1cc(C)nc(N2CCC(C(=O)Nc3nnc(C(C)C)s3)CC2)n1` was tested, and the survival was inactive: 107%. In the case of `O=C(NCc1cccc(Cl)c1)C(=O)Nc1ccc2nc3n(c(=O)c2c1)CCCCC3`, the survival is reported as inactive: 118%. With `CCCCN1CCCc2cc(CN(CCCN3CCOCC3)C(=O)Nc3ccc(OCC)cc3)ccc21` the survival was inactive: 80%. In the case of `O=C(NCc1ccco1)c1ccc(COCC(F)(F)C(F)F)cc1`, the survival is reported as inactive: 98%. With `COc1cc(Nc2nc3ccccc3c3nnc(C)n23)cc(OC)c1` the survival was inactive: 32%. In the case of `CCN(CC)S(=O)(=O)c1ccc2c(c1)N(CC(=O)N1CCN(c3ccccc3F)CC1)C(=O)CO2`, the survival is reported as inactive: 74%. In the case of `CCOC(=O)c1ccc(Nc2ncnc3c2cnn3-c2cccc(Cl)c2)cc1`, the survival is reported as inactive: 78%. For `CCN(C(=O)c1cc2c(s1)-c1ccccc1OC2)c1cc(Cl)ccc1OC`, the survival was active: 8%. For `CC1Cc2cc(S(=O)(=O)NCc3ccccc3Cl)ccc2N1C(=O)C1CCC1` (configuration not stated), the survival was inactive: 74%. In the case of `Cn1c(-c2ccccc2)c(CCO)c2ccccc21`, the survival is reported as inactive: 113%. `Cc1ccc(NC(=O)N2CCc3cc(S(=O)(=O)N4CCC(C)CC4)ccc32)cc1C` was tested, and the survival was inactive: 83%. `O=S(=O)(NCCS(=O)(=O)N1CCN(c2ccccc2F)CC1)c1ccc(Cl)cc1` was tested, and the survival was inactive: 105%. In the case of `Cc1ccccc1NS(=O)(=O)c1nnc(NC(=O)c2ccccc2C)s1`, the survival is reported as inactive: 68%. For `NC(=O)c1cccc(S(=O)(=O)N2CCCCC2)c1`, the survival was inactive: 99%. `CCN(CC)c1ccc(C(=O)N2CCC(c3c[nH]c4ccccc34)(c3c[nH]c4ccccc34)CC2)cc1` was tested, and the survival was inactive: 90%. With `CCOC(=O)c1ccc(NC(=O)c2ncn(-c3ccccc3)n2)cc1` the survival was inactive: 88%. With `COc1ccc(N2CCN(C(=O)CCn3c(=O)c4cccn4c4cccnc43)CC2)cc1` the survival was inactive: 93%. In the case of `CC(NC(=O)Nc1cc(Cl)ccc1Cl)c1c(-n2cccc2)sc2c1CCCC2` (configuration not stated), the survival is reported as inactive: 67%. In the case of `Cc1ccc(-c2nc(-c3cc4cccc(OCc5cccc(C)c5)c4oc3=O)no2)cc1`, the survival is reported as inactive: 71%. In the case of `CCn1c(SCC(=O)OC)nnc1-c1ccc(O)cc1`, the survival is reported as inactive: 114%. With `O=C(NC1CCN(Cc2ccccc2)CC1)c1ccc(Cn2c(=O)c3ccccc3n(Cc3ccccc3)c2=O)cc1` the survival was inactive: 86%. With `CCc1c(C)nc2nncn2c1Nc1ccc(C(C)C)cc1` the survival was inactive: 83%. With `N#CC1(Nc2ccccc2Cl)C(=O)Nc2ccccc21` (configuration not stated) the survival was inactive: 114%. With `Cc1ccc(CNC(=O)c2ccc(-n3cnc4cccnc43)cc2)cc1` the survival was inactive: 136%. With `Cc1ccc(NC(=O)/C(C#N)=C/c2cc(C)n(-c3ccc(F)cc3)c2C)cc1C` the survival was inactive: 79%. In the case of `CCc1ccc(NC(=O)Cn2c3ncccc3c(=O)n2-c2ccc(C)c(C)c2)cc1`, the survival is reported as inactive: 97%.
